Biological target: T1, human CTLA-4 on the cell surface (human, UniProt P16410 36-223)
T1 construct: whole, on cells; also called CHO-hCTLA-4 cells; CHOK1-hCTLA4 cells
Assay: flow cytometry competition, 293T-hPD-1-hCTLA-4 cells (PD-1 co-expressed), biotin-human CD80
Description: PD-1 and CTLA-4 are co-expressed on functionally exhausted T cells in the tumor microenvironment, and the expression level of PD-1 is higher than that of CTLA-4. […] 200 μL of the cells were added to a 96-well U-bottom plate, approximately 1.4×10⁵ cells/well. After centrifugation at 300 g for 5 minutes, the supernatant was discarded. […] After washing three times with FACS buffer, 100 μL/well of 1:800 diluted PE Streptavidin was added and incubated at 4° C. for 50 min. After washing three times with FACS buffer, 150 μL/well of PBS was added to resuspend the cells, and the fluorescence signal was detected on a flow cytometer (BECKMAN COULTER cytoFLEX). The binding activity was fitted using a four-parameter model, and the IC₅₀ value of the blocking activity of each antibody was calculated.

T1 sequence (P16410 36-223): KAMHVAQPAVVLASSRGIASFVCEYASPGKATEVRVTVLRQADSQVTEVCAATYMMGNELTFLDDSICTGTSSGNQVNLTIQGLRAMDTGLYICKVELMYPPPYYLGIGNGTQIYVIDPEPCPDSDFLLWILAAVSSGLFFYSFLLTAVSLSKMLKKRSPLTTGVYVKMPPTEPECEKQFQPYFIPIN

B1: HC010-F8 (trispecific antibody, human IgG4 S228P, kappa)
heavy: EVQLVESGGGLVQPGGSLRLSCAASGFTFSSYGMSWVRQAPGKCLEWVSTISGGGRDTYYPDSVKGRFTISRDNSKNTLYLQMNSLRAEDTAVYYCARQNGITWFADWGQGTLVTVSSGGGGSGGGGSGGGGSGGGGSDIQMTQSPSSLSASVGDRVTITCRASESVDNYGISFMNWYQQKPGKAPKLLIYAASNQGSGVPSRFSGSGSGTDFTLTISSLQPEDFATYYCQQSKEVPWTFGCGTKVEIKGGGGSGGGGSGGGGSGGGGSEVQLVESGGGLVQPGGSLRLSCAASGYTFTNYGMNWVRQAPGKGLEWVGWINTYTGEPTYAADFKRRFTFSLDTSKSTAYLQMNSLRAEDTAVYYCAKYPHYYGSSHWYFDVWGQGTLVTVSSASTKGPSVFPLAPCSRSTSESTAALGCLVKDYFPEPVTVSWNSGALTSGVHTFPAVLQSSGLYSLSSVVTVPSSSLGTKTYTCNVDHKPSNTKVDKRV[human IgG4 Fc with S228P (EU numbers) not spelt out]AGGGGSGGGGSGGGGSGGGGSEVQLLESGGGLVQPGGSLRLSCAASGSIFSINHMAWYRQAPGKQRELVAGVNSRGTTNYVDSVKGRFTISRDNSKNTLYLQMNSLRAEDTAVYYCRALGGAVAAWGQGTLVTVSS
light: DIQMTQSPSSLSASVGDRVTITCSASQDISNYLNWYQQKPGKAPKVLIYFTSSLHSGVPSRFSGSGSGTDFTLTISSLQPEDFATYYCQQYSTVPWTFGQGTKVEIKRTVAAPSVFIFPPSDEQLKSGTASVVCLLNNFYPREAKVQWKVDNALQSGNSQESVTEQDSKDSTYSLSSTLTLSKADYEKHKVYACEVTHQGLSSPVTKSFNRGEC
notes: light: bevacizumab VL-kappa; also called H010-F8
In the case of B1, the IC50 is reported as 0.079 nM.

Reference: patent publication US20260116960A1 (SHANGHAI HONGCHENG BIOPHARMACEUTICAL, published 2026)
